Assay results from the supplement of paper PMC3334620.
Over roughly 33,000 sequences, “E-score (-0.5 to 0.5)” has its median near -0.054; the highest 2% begin near 0.39. Some of the results follow.

biological target: Ylr278c (UniProt Q05854); assay: PBM E-score (8-mer binding enrichment) (E-score (-0.5 to 0.5)); higher = stronger / more preferred TF binding; most listed sequences are background and not binding sites; settings: protein concentration: 200 nM; construct: GST-DNA-binding domain
Protocol: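 Universal 'all 10-mer' protein binding microarrays (Agilent AMADID 015681) probed with GST-tagged S. cerevisiae TFs (full-length or DBD) made by in vitro transcription/translation (PURExpress), about 100-200 nM. Bound TF was detected with fluorescent anti-GST. Each ungapped 8-mer (which stands for itself and its reverse complement) is scored by the PBM enrichment score (E-score), a modified Wilcoxon-Mann-Whitney statistic from -0.5 to +0.5, computed with the Universal PBM Analysis Suite. Scale: above 0.35 generally sequence-specific binding.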

Sequence	PBM E-score
AGGGTGGG	-0.00128
ACGCGTGC	0.0415
CATGTTAG	-0.305
ATGATTTG	-0.109
AGCCGGCA	0.33
GCACGTCA	-0.16
CCTACAAC	-0.135
ATCACGTA	-0.251
GCCACACC	-0.0734
ATTTGTAG	-0.189
AAATTGGC	-0.0165
AACGGCTG	-0.0556
CCATACAC	-0.0289
AGCGCGAG	-0.103
AAGCCACG	-0.0652
CGAGATAG	-0.112
TAATCCGA	0.359
CTTAAAAG	-0.255
ATTCGCAG	0.0812
ACAAGGAG	-0.00099
AAGTTAGA	-0.0698
ACAAGATG	-0.0994
CCCTCCAA	-0.119
ACTATCTG	-0.347
AAGTGCAT	-0.136

Sequence	PBM E-score
AGGCTCAT	-0.112
ACCAGAAA	0.00196
TCGAAGAA	-0.0929
ACAGAAAT	-0.148
ACCTGTAA	-0.12
CCCAGTAA	-0.082
GCGTTAAC	0.00826
CTTTATGC	-0.05
ACATCGAG	-0.288
TTGTAAAA	-0.0868
AGCGAATC	0.0435
GATACTCC	0.189
GCCTAGAC	-0.0713
CAGTATAA	-0.126
AAACAGTC	-0.302
TCGTTTCA	0.0509
CGAGTCGA	-0.126
ACATTGCC	-0.152
CGGGAGAG	0.108
GATACCAA	0.0152
CTTGACGA	-0.164
CTCGCAAC	-0.123
GCCTACGC	-0.221
AATAATAG	-0.0615
CATCGCGC	0.1

Sequence	PBM E-score
AAAGTATG	-0.0796
ACGTGGTA	-0.189
CAAAAAAG	-0.0536
ATTAATCC	0.239
CCCACGCA	-0.0116
TCTGCTAA	-0.193
ACGTGGTC	-0.271
AGTTAATG	-0.17
ACTGGATA	0.0455
CTTGCTAC	-0.143
ACACTTAA	-0.112
AACCCCGT	0.381
ATGTAGGG	0.111
TAGAGATA	-0.07
CCGACGTC	0.341
CTATTCTC	0.0934
CTGGGCAC	-0.183
CATACTAA	-0.0312
ACTGATAA	-0.075
ACTCCTCT	-0.0377
CGGCTTAC	0.179
AAGGAAAT	-0.187
ATCTGTCC	0.0882
CGCAGCAG	0.017
GTGCCGAA	0.241

Sequence	PBM E-score
AGGCAGGA	-0.216
AAGAACAG	-0.212
AGTTGTAC	-0.00525
CGAGAGTC	-0.0863
CAAAGAAG	-0.00668
CCATGGAG	-0.194
GACAGCAC	0.151
AGCGGGTC	0.0309
GACAGAAA	0.0117
AGGAGGGG	-0.21
GCACATTA	-0.0892
AACTCGCA	-0.364
AAATTGAA	-0.259
CTCACGAA	-0.209
CCTAGCCA	-0.288
ATATGGGA	-0.0358
AAGAGAAC	-0.0874
ACCACTAA	-0.0375
ACGACAAT	0.0833
AAGGTGGT	-0.0094
CGAACAAG	0.0603
ATTAGAGA	-0.225
GCATGATA	-0.063
CCAGTCAG	-0.19
AGTGTGTC	-0.198

Sequence	PBM E-score
ACACCCGT	-0.106
GTCCGAAA	0.426
CGCAAGGA	-0.0117
GGGCTATA	-0.0939
CGCGGAGC	0.41
CATAGTGC	-0.105
GGTTTGAA	-0.0015
AAGTTAGC	-0.114
ATATTCCG	0.43
TGTGCACA	-0.22
CAACGTAG	-0.188
ATACGACG	0.0511
GCAGACGA	-0.119
CCGTTAGA	0.231
GCGGCACC	0.223
CGCTCTTA	0.114
CTGACCCA	-0.26
CCCGTTGC	-0.0717
GCTGCGAC	-0.216
GCAAGTTA	-0.0274
ACCGCACT	0.132
CCTATTTA	-0.0606
AGGAACCC	0.00516
AATAACAG	-0.0964
CAACAGGA	-0.195

Sequence	PBM E-score
ATACCCGC	0.226
CTACGGGA	0.172
AGTCGAAG	-0.259
ACCTCGCT	-0.0554
GTTCGAAC	-0.0286
CTTAAGGA	-0.232
ATGCTCTC	-0.115
ACGTGGCG	0.0141
TATATAGA	-0.0873
AGGTGCGG	0.231
GGTGCACA	-0.128
ATCGAAAG	-0.0309
AAACATTT	-0.0935
AAGACAGA	-0.0502
AGGCCGCG	0.141
CAAACTCG	0.0627
AGTATGAG	-0.0996
CGTTAGAC	-0.0149
ATTCGCAC	0.0877
GATAGAGA	-0.143
ACCGGAAT	0.389
GAACGGAA	0.32
CAAATGAG	-0.178
AGCCCGTC	-0.0585
AAAACGAA	0.0564

Sequence	PBM E-score
CGGATGCC	0.156
AATATTGG	-0.0777
AATGGTTG	0.0204
GCCACCCC	-0.0819
ACAGACGT	-0.0641
CACATATA	-0.0871
CATTGATA	0.0385
TGAAGTCA	-0.0781
CCCTGGAC	-0.177
GCCTATTA	-0.101
CACGACAG	-0.134
CATGAACA	-0.165
AATTCTCC	0.407
AACAATGC	-0.0737
TCTCCACA	-0.14
CACTGCGG	0.111
CAGAGGCC	-0.235
GTATGGAC	0.0892
GCGCACGA	0.0451
GGATATCA	0.166
AAGACCCT	-0.263
AAGGACCC	-0.00784
GAAAATCC	0.326
ACGAGATA	-0.132
CCTATTCA	0.0466

Sequence	PBM E-score
AACTCCCC	0.266
TCTACTCA	-0.164
CCGTAATC	0.153
CACTTGGC	-0.064
CCGTCGTA	0.0447
CCTTAGAG	-0.172
AGGCGATG	-0.0109
CGAACTCG	0.0307
CCTCAGCA	-0.143
GAGAGGAC	-0.0828
TTATAAAA	0.131
GAACTGTC	-0.00797
ACTCGCAG	-0.155
CTTTAGAC	-0.335
GTCTATTA	-0.113
CGTGGTTC	-0.00082
CACCCGTG	-0.0716
AATTCCCC	0.226
TCCTGTCA	-0.161
CTAGGAAG	-0.176
ACTGCCCC	-0.159
AAGTTCGC	-0.0704
TCAGTAGA	-0.17
AAGTACAT	-0.0215
GGAATGAA	0.254

Sequence	PBM E-score
CAGAATAA	-0.174
AGGCCTAG	-0.243
AGTTCAAA	0.0609
AACCCTAT	-0.194
GCATTATA	-0.107
ATAAATAG	-0.0187
CTGCAGAC	-0.108
GCTCAATA	-0.0615
CCAGATAC	-0.0444
GGTGCGAC	0.0456
CAATCTAC	-0.167
GCTCGGCA	0.144
CTGAGTAC	-0.106
CCGGCATA	0.377
CGTCTAAA	-0.00647
GATCGAAA	0.0645
GAAGATTC	0.0288
AAGAGTTC	-0.218
GAAAGTTC	-0.00542
ATAAGGTA	0.0618
TCCTTCGA	0.037
CCGCCTAA	0.0559
GCTGCCGA	0.172
GTACTCTA	-0.322
ACAACGCT	-0.131

Sequence	PBM E-score
AGTAGGTA	-0.124
CTTTCGCC	0.127
GAACACTC	0.251
CGGTAGAC	0.141
AATTGCGA	0.0801
AACGTCCT	-0.129
AGACAAGA	0.0543
TAACACAA	-0.0509
AGCTTGGA	-0.178
ACAGGTCC	0.0268
AATATCAA	-0.0465
AGATCTTC	0.0583
GATAGAAC	0.0699
ATTGCTGA	-0.24
ATCCGGAC	0.424
CTGTAATA	-0.00741
ATAAAAAT	-0.0243
CCCGGGGA	0.358
CTCGAGCC	-0.131
AAGAACGC	0.0558
ATTGGTTG	-0.207
GAATGTAC	0.0625
CCCCATTA	-0.424
ATTTACAC	-0.0791
CCGGCCAG	0.309

Sequence	PBM E-score
ATACTAGC	0.0076
GATGACTA	-0.221
CAATGTAC	-0.256
GGATCAAC	0.0773
GATTTCCC	0.189
CGGCTAAC	0.157
ATTAGGAA	0.00282
AACGTTAA	0.0786
AGCGGACT	0.358
AGGCCTAA	-0.139
AACTCCCA	0.155
ACACCTTG	-0.262
CCCCTGTC	-0.265
CCGTTTTC	0.112
ATAATATG	0.0874
ACCTTGTA	-0.27
CACGAAAA	-0.0651
GATCCCTA	-0.0683
GTCGGTGA	0.141
CAAAACTA	-0.057
AAGCTGCC	-0.234
AATCCTCA	-0.299
CGCTATCA	-0.0187
GGATCGAA	0.0293
CAACCGTA	-0.319

Sequence	PBM E-score
AAATAGCG	-0.0148
GACGCACC	-0.125
CCGAGAAC	0.269
ACGCTGCA	-0.132
AGGATCCA	-0.171
AAGCTCAT	-0.128
CCTCACCC	0.158
GCTCTCAC	-0.0541
GCAAATCA	-0.0939
ATATCGTC	-0.258
AACCTCTT	0.117
AACGCTAC	-0.0542
AAGTCCGC	0.46
CTCCGCTA	0.368
GCTACCGA	-0.00941
CGCCTGCC	-0.0694
AGGTCCGG	0.418
ACAGAACG	-0.124
CGACTCCG	0.406
TGGGCAAA	-0.0454
AAATAATC	-0.0227
ACGCGTTC	0.0444
AAAGCGCA	0.0052
CTAAAATA	-0.138
GAGCCATC	-0.224

Sequence	PBM E-score
CCACGAAA	-0.18
CCCTCCCG	0.126
CATGCCAA	-0.234
ATGAAAGA	-0.168
AACTCCCG	0.365
TTACTCAA	0.0257
ACTCGGCC	0.16
CTTCCCCC	-0.142
ATGCATAC	-0.135
AGTGGTGA	0.0846
AGCCATAG	-0.327
ACAAAACA	-0.213
CCGGACGC	0.364
ATGTAGTG	-0.17
GTTATAAA	0.00657
CTCACAGA	-0.231
AGTTGCAG	-0.142
GTTAGTAA	-0.183
AAGACTTG	-0.126
ACTTGATA	-0.0344
CTGCGCCC	-0.142
CCTTTACC	-0.105
CGATTGCG	0.234
AAGTAATG	0.029
AGTTCGCC	0.0865

Sequence	PBM E-score
ATGTGGCA	-0.0966
AATGCTAG	-0.151
CGGACGGC	0.313
AAGCGATA	-0.18
CGGAGATC	0.479
CAACTCTA	-0.0308
GTCAATAA	-0.0804
TATGATGA	-0.143
ACCTTATG	-0.283
CGCTACAA	-0.0146
GCGGGCGA	0.275
AAGTTTTG	-0.0901
CGAAACGA	-0.104
CAGTCGGA	0.357
AGATCTAC	-0.0677
ATAGATGC	-0.0946
GACCCGTA	-0.0778
CTGAGTGC	-0.133
CTACTAAA	-0.0349
